Reference: PubChem BioAssay AID463173 (ICCB-Longwood Screening Facility, Harvard Medical School, 2010)
About 4,300 (8.3%) of roughly 52,000 compounds were called active. No stated cut-off is given here; in the data, active means survival mostly below about 52% (no sharp cut-off); inactive means mostly above about 56%. The list shows a part of the results.

Tested on: DeltatarO mutant
Assay: growth inhibition of S. aureus wild type versus tarO mutant, primary screen, teichoic acid synthesis inhibitors, RN4220, OD600 (AID 463173)
Conditions: OD600, 18 h, stronger effect = lower value, screened at 18.75 µg/mL (by protocol)

Compound | survival
CCn1c(=O)sc2cc(NS(=O)(=O)c3ccc(C)cc3)ccc21 | inactive: 62%
CC(=O)Nc1ccc(NC(=O)c2ccc3c(c2)NC(=O)c2ccccc2S3)cc1 | inactive: 107%
Cc1ccc(NC(=O)C(C)Sc2nc(-c3ccccc3)c(C#N)c(=O)[nH]2)c(C)c1 (centres undefined) | inactive: 70%
O=C(Nc1nnc(S(=O)(=O)N2CCOCC2)s1)c1ccccc1F | inactive: 86%
CC(C)Cc1nn2c(=O)cc(COC(=O)c3ccc(NC(=O)CCc4ccccc4)cc3)nc2s1 | inactive: 77%
O=c1c(N2CCc3ccccc3C2)csc2ccc(Cl)cc12 | inactive: 91%
CC(C)c1cnc2c(c1SCC(=O)N1CCCCC1)c(=O)n(C)c(=O)n2C | inactive: 107%
COc1ccc(Nc2c(-c3ccc(N4CCOCC4)cc3)nc3ncccn23)cc1OC | inactive: 90%
COc1ccc(/C=C/C(=O)Nc2sc(C)c(C)c2C(=O)O)cc1 | inactive: 60%
CCOc1cc(CN2CCN(S(=O)(=O)c3ccc(C)cc3)CC2)ccc1OC | inactive: 171%
CCOc1ccc(-c2nc(SCC(=O)c3ccccc3)n[nH]2)cc1 | inactive: 179%
Brc1cccc(-c2nnc(CN3CCN(c4ccccn4)CC3)o2)c1 | inactive: 80%
Cc1ccc(S(=O)(=O)Cc2ccc(C(=O)NCCc3ccc(Cl)cc3)o2)cc1 | inactive: 56%
COCCCNC(=O)c1cnc2c(-c3ccc(F)cc3)c(C)nn2c1C | inactive: 130%
CCOC(=O)C1CCN(C(c2cccc(F)c2)c2c(O)cc(C)n(Cc3ccco3)c2=O)CC1 (centres undefined) | inactive: 113%
O=C(c1ccc(Br)cc1)N1CCN(CCc2ccncc2)CC1 | inactive: 78%
COc1ccc(-c2noc(N(c3cccc(Cl)c3)c3nc(-c4ccc(OC)c(OC)c4)no3)n2)cc1OC | inactive: 150%
O=C(NCc1ccco1)C1CCN(S(=O)(=O)Cc2ccccc2)CC1 | inactive: 94%
Cc1ccc2cc(C#N)c(NCCNC(=O)Nc3ccccc3C)nc2c1 | inactive: 63%
O=C1c2[nH]nc(-c3ccccc3O)c2C(c2ccccc2F)N1Cc1cccnc1 (centres undefined) | inactive: 87%
Cc1cccc(-n2c(Cc3ccccc3)nnc2SCc2nc(-c3cccs3)no2)c1 | inactive: 60%
CCOC(=O)c1ccc(N2C(=O)c3n[nH]c(-c4ccco4)c3C2c2ccc(O)c(OCC)c2)cc1 (centres undefined) | inactive: 69%
Cc1cccc(Nc2nnc(-c3ccc(C)c(S(=O)(=O)NCC4CCCO4)c3)c3ccccc23)c1 (centres undefined) | inactive: 82%

Compound | survival
COCCNc1ccc(-c2nc(-c3ccco3)no2)cc1[N+](=O)[O-] | inactive: 54%
COC(=O)C1=C(C)NC(=O)C1(NC(=O)c1cc(OC)c(OC)c(OC)c1)C(F)(F)F (centres undefined) | inactive: 54%
Cc1cc(C)nc(NC(=NCCc2c[nH]c3ccc(Cl)cc23)NC(=O)c2ccccc2C)n1 | inactive: 81%
C=Cc1ccc(Cn2nc(-c3ccc(C)cc3)ccc2=O)cc1 | active: 35%
CCOC(=O)c1cc(C)n(CC2CCC(C(=O)Nc3cccc(C)c3)CC2)c1C (centres undefined) | inactive: 98%
CCOC(=O)c1c(NC(=O)c2ccc(S(=O)(=O)N3CCC(C)CC3)cc2)sc2c1CCN(CC)C2 | inactive: 75%
CCn1c(C)nnc1SCC(=O)Nc1cccc(Cl)c1 | inactive: 101%
O=C(O)CCCn1cnc2ccccc2c1=O | inactive: 100%
O=C(NC1CCCCC1)c1ccc(CSc2nc3cccnc3n2Cc2ccc(F)cc2)cc1 | active: 25%
COc1ccc(CCN2C(=O)C3C(C(=O)Nc4cc(C)on4)C4(C)C=CC3(O4)C2C(=O)NC2CCCCC2)cc1 (centres undefined) | inactive: 76%
COc1ccc(S(=O)(=O)NCC(c2ccco2)N2CCN(c3ccccc3)CC2)cc1OC (centres undefined) | inactive: 89%
CCOC(=O)c1cc(-c2ccccc2)n(CCCC(=O)Nc2cccc(C)c2C)c1C | inactive: 116%
O=C(O)CCn1c(=O)c2cccn2c2cccnc21 | inactive: 98%
Cc1[nH]c(=O)[nH]c(=O)c1S(=O)(=O)N1CCN(c2ccccc2Cl)CC1 | inactive: 70%
CCN1CCN(C(=S)NCC2CCCO2)CC1 (centres undefined) | inactive: 73%
N#Cc1ccccc1Cn1c(=O)n(-c2cccc(C(F)(F)F)c2)c(=O)c2sccc21 | inactive: 69%
COC(=O)c1ccc(NC(=O)CN2C(=O)CCc3cc(S(=O)(=O)N4CCCCC4)ccc32)cc1 | inactive: 102%
CCOc1cc2[nH]c(=O)n(CCCCC(=O)N3CCN(c4cccc(Cl)c4)CC3)c(=O)c2cc1OCC | inactive: 85%
Cc1cccc2sc(N(Cc3cccnc3)C(=O)c3cccs3)nc12 | inactive: 75%
CCc1ccc(CN2CCc3nc(Nc4ccccc4)ncc3C2)cc1 | inactive: 84%
CC(=O)Nc1ccc(NC(=O)c2cc3sccc3n2Cc2ccc(F)cc2)cc1 | inactive: 138%
CC(C)(C)C1CCc2c(sc3nc(-c4cc5cc(Br)ccc5oc4=O)[nH]c(=O)c23)C1 (centres undefined) | inactive: 77%
CCOC(=O)c1c(C)[nH]c(CCC(=O)NCc2ccc(F)cc2)c1C | inactive: 89%

Compound | survival
COc1ccccc1NC(=O)c1sc2nc(C)c(C(=O)Nc3ccc(C)cc3C)c(-c3cccs3)c2c1N | inactive: 85%
CCc1ccc(NC(=O)CC2C(=O)N(c3ccc(Cl)cc3)C(=O)N2Cc2ccco2)cc1 (centres undefined) | inactive: 91%
CCc1ccccc1Nc1nn2c(=O)c3ccc(C(=O)NC(C)c4ccccc4)cc3nc2s1 (centres undefined) | inactive: 80%
Cc1ccc(NC(=O)C(=O)NCC(c2cccnc2)N2CCN(c3ccccc3F)CC2)cc1Cl (centres undefined) | inactive: 73%
COc1cc2[nH]c(=O)n(CCCC(=O)NCc3ccc(Cl)cc3)c(=O)c2cc1OC | inactive: 91%
Cc1c(-c2nnc(SCC(=O)Nc3ccccc3F)o2)nnn1-c1ccc(F)cc1 | inactive: 96%
CN(C)c1cc(N)c2c(n1)CCC2 | inactive: 83%
COc1ccc(CNC(=O)CCc2cn(C)c3ccccc23)cc1 | inactive: 57%
CC(NC(=O)c1ccc(F)cc1)C(=O)O (centres undefined) | inactive: 101%
Cc1ccc(CCNC(c2ccc(F)cc2)c2nnc(-c3ccccc3Cl)o2)cc1 (centres undefined) | active: -8%
COc1cccc(N2CCN(S(=O)(=O)c3cn(C)c(C)n3)CC2)c1 | inactive: 107%
Cc1ccc(C(=O)N/C(=C/c2ccc3c(c2)OCO3)C(=O)O)cc1 | inactive: 97%
COc1ccc(NC(=O)c2cc3nc(-c4ccc(Cl)c(Cl)c4)cc(C(F)(F)F)n3n2)c(OC)c1 | active: 47%
CCCNC(=O)c1cnn2c(C)c(Cc3c(C)cc(C)cc3C)c(C)nc12 | inactive: 57%
O=C1CCCC2=C1C(c1ccc3c(c1)OCO3)c1c([nH]c(=O)[nH]c1=O)N2 (centres undefined) | inactive: 100%
CCOc1ccccc1NC(=O)N1CCC(n2c(C)nc3cccnc32)CC1 | inactive: 99%
Cc1sc2ncn(CC(=O)Nc3ccc(F)cc3F)c(=O)c2c1S(=O)(=O)N1CCC(C)CC1 | inactive: 92%
Cc1cc(-c2ccc(C)c(S(=O)(=O)N3CCC(C)CC3)c2)on1 | inactive: 115%
CCOC(=O)c1c(C)sc(-c2c(-c3ccc4c(c3)OCCO4)[nH]c3c2c(=O)n(C)c(=O)n3C)c1O | inactive: 128%
CC(=O)N1c2ccc(S(=O)(=O)N3CCCCCC3)cc2CC1C(=O)NC(C)C (centres undefined) | inactive: 86%
CCOC(=O)N1CCc2c(sc3c2c(=O)n(Cc2ccccc2)c(=O)n3Cc2cc(C)ccc2C)C1 | inactive: 76%
CC(C)CC(=O)Nc1nc2c(s1)CC(C(C)(C)C)CC2 (centres undefined) | inactive: 102%
CCn1c(C(=O)N2CCC(C(=O)N3CCN(c4cc(C)ccc4C)CC3)CC2)cc2sccc21 | inactive: 51%

Compound | survival
COc1ccc(CNC(=O)c2ccc3nc(CCc4ccccc4)oc3c2)cc1OC | inactive: 79%
CCOc1ccc(CNC(=O)c2cccc(NC(=O)N3CCSc4ncccc43)c2)cc1 | inactive: 85%
CC(=O)N1CCc2cc(S(=O)(=O)NC(CC(C)C)C(=O)Nc3ccc(C(C)C)cc3)ccc21 (centres undefined) | inactive: 61%
CC(C)Cn1cc(NC(=O)Nc2cccc(C(F)(F)F)c2)c2ccccc2c1=O | inactive: 68%
CCOC(=O)c1c(C)n(S(=O)(=O)c2ccc(C)cc2C)c2ccc(NS(=O)(=O)c3ccc(C)cc3C)cc12 | inactive: 84%
COc1ccccc1Nc1sc(C(=O)c2ccc3c(c2)OCO3)c(N)c1S(=O)(=O)c1ccccc1 | inactive: 71%
Cc1ccc(C2=Nc3ccccc3N(CC(=O)Nc3ccccc3F)C(=O)C2)cc1C | inactive: 71%
CCCS(=O)(=O)N1CCN(S(=O)(=O)CCC)CC1 | inactive: 114%
CCc1nn(CCCC(=O)N2CCN(c3cc(Cl)ccc3C)CC2)c(=O)c2cc3occc3n12 | inactive: 58%
Cc1ccc2nsnc2c1S(=O)(=O)NC(C)(C)C | inactive: 95%
CCCC1CC(C)(c2csc(NCC)n2)OC1=O (centres undefined) | active: 71%
COc1ccc(CC(=O)NC2CC(=O)N(c3cccc(F)c3)C2)cc1OC (centres undefined) | inactive: 71%
O=C1c2ccccc2C2(c3ccccc3)NCCCN12 (centres undefined) | inactive: 100%
Cc1nc(-c2ccccc2)sc1-c1ccc(SCC(=O)Nc2cccc(C(F)(F)F)c2)nn1 | inactive: 41%
COc1cccc(C2CC(=O)Nc3cc4c(cc32)OCO4)c1OC(C)C (centres undefined) | inactive: 70%
COc1ccc(NC(=O)CSCC(=O)O)cc1 | inactive: 105%
CCC(=O)N1CCc2cc(Br)cc(S(=O)(=O)N3CCC(C(=O)Nc4ccccc4CC)CC3)c21 | inactive: 84%
CC(=O)NC1CC(=O)N(c2ccc3c(c2)OCCO3)C1 (centres undefined) | inactive: 55%
CCOc1cc(C(=O)Nc2ccncc2)cc(OCC)c1OCC | inactive: 94%
COc1cc(OC)c(NC(=O)C2CCN(C(=O)c3sc4nc[nH]c(=O)c4c3C)CC2)cc1Cl | inactive: 86%
